Experimental data from the supplement of paper PMC3334620.
In all, about 33,000 sequences were measured (“E-score (-0.5 to 0.5)”: median about -0.013, highest 2% from about 0.3 on). The list shows a part of the results.

Target: T1, Msn1 (UniProt P22148)
T1 sequence: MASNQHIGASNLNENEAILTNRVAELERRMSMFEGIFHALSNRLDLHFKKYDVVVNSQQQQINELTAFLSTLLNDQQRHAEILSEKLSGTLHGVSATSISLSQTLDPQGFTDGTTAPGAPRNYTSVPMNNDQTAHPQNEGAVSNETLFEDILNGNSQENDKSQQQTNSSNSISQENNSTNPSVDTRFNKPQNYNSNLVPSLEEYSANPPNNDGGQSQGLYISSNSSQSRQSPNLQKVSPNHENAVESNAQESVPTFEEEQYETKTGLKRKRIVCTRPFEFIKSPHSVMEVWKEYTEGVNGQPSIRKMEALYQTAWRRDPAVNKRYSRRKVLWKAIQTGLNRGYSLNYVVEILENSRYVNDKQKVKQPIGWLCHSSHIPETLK
Assay: PBM E-score (8-mer binding enrichment) (E-score (-0.5 to 0.5)); higher = stronger / more preferred TF binding; most listed sequences are background and not binding sites
Settings: protein concentration: 200 nM; construct: GST-full length
Method: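 Universal 'all 10-mer' protein binding microarrays (Agilent AMADID 015681) probed with GST-tagged S. cerevisiae TFs (full-length or DBD) made by in vitro transcription/translation (PURExpress), about 100-200 nM. Bound TF was detected with fluorescent anti-GST. Each ungapped 8-mer (which stands for itself and its reverse complement) is scored by the PBM enrichment score (E-score), a modified Wilcoxon-Mann-Whitney statistic from -0.5 to +0.5, computed with the Universal PBM Analysis Suite. Scale: above 0.35 generally sequence-specific binding.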

| Sequence | PBM E-score |
| --- | --- |
| CGGACATA | 0.469 |
| GGTCGATA | -0.0246 |
| CGACTCCA | -0.0963 |
| GAGATGAC | -0.0938 |
| TATTAGCA | 0.0864 |
| ACATGCAC | 0.00468 |
| GACAGCCC | -0.172 |
| CCGTAGGC | -0.216 |
| GTCACCGA | -0.0677 |
| GGATAGTA | 0.125 |
| CTGATTAC | 0.0826 |
| CTAGGGAA | -0.00319 |
| CTATTGGA | 0.0335 |
| CTCGACAC | 0.0424 |
| CGTTGGTA | 0.0538 |
| CACATGTA | 0.121 |
| CCCAGTTA | -0.269 |
| ACCGCCCG | -0.349 |
| CTGTATTA | 0.186 |
| AGTCTCAT | 0.0816 |
| AAGTCGGG | 0.1 |
| GACTTTGA | 0.0613 |
| CCCAGTGA | -0.0718 |
| ATAATATC | 0.25 |
| GACAGATA | 0.281 |

| Sequence | PBM E-score |
| --- | --- |
| GTCATTAA | 0.246 |
| CAGCTACG | -0.186 |
| CGCGGTCC | -0.0855 |
| CATGCTTC | -0.016 |
| AAATGAAC | 0.156 |
| GGCAGTTA | -0.0746 |
| CAACGGCA | -0.0227 |
| GATCGCAA | 0.129 |
| GCCACGTA | -0.0984 |
| CCCGCAGC | -0.238 |
| GGGAAATA | -0.16 |
| CTATCTGC | -0.1 |
| CCATCGAC | -0.207 |
| ATGGTAAC | 0.0897 |
| TAGAAAAA | 0.0152 |
| GAACGTCC | 0.206 |
| AACTATGA | -0.0095 |
| AGGCCATA | -0.145 |
| ACTTAGTG | -0.0501 |
| ATCGATAC | 0.205 |
| AGGATAAC | -0.124 |
| CACCTGGG | -0.252 |
| AGTGATGG | -0.00297 |
| AGCCACGA | -0.181 |
| GTTGGTTA | 0.0592 |

| Sequence | PBM E-score |
| --- | --- |
| AGTTTACG | -0.0785 |
| AGTCTTAT | 0.174 |
| CTACGCAA | -0.138 |
| CCTAGCAG | -0.0737 |
| CTCCGGAC | 0.224 |
| AACGCGCG | 0.155 |
| ATGGAAAT | 0.0754 |
| GGCAGCGA | -0.245 |
| GGGATACA | 0.00752 |
| ACCGAGGC | -0.0613 |
| GGTCTCGA | -0.0089 |
| GACGGTCA | -0.153 |
| AGAAATCA | 0.116 |
| CCCCTAGA | -0.307 |
| CCACACAC | -0.0382 |
| GTCACAAC | 0.0529 |
| GCGAGGAC | 0.0256 |
| CGACGGAA | 0.0402 |
| CTTGCTTC | 0.0255 |
| AGTTCATA | 0.042 |
| AAGCACCG | -0.197 |
| GCGCCTGA | 0.132 |
| CACTGGAC | 0.197 |
| ATAGGGAT | -0.0399 |
| ACTACTTA | 0.0469 |

| Sequence | PBM E-score |
| --- | --- |
| TCCCGGGA | 0.0874 |
| CTCTGGAA | -0.0717 |
| ACAACAAA | 0.13 |
| CCTCGGCA | 0.184 |
| CGAGCAAA | -0.0767 |
| AAACCGCG | 0.177 |
| CCGAGATA | 0.138 |
| GGCCAGAA | -0.00479 |
| CAGACGAA | 0.275 |
| CGCTTCGA | -0.121 |
| ACGTAGTA | -0.0206 |
| ACGGGCGA | -0.15 |
| AGTGCCAG | -0.305 |
| ACTGATGG | -0.144 |
| ACAGGTGC | -0.225 |
| CACGAAGA | 0.104 |
| ATGTCATC | 0.341 |
| CCGGTACA | 0.319 |
| CAACAGCC | 0.0778 |
| AGGGCATG | 0.102 |
| ACCGTGAA | 0.0388 |
| AGCCTACA | -0.135 |
| CACTCGCC | 0.0367 |
| GGGCCTGA | -0.109 |
| ATCTAGCC | -0.0866 |

| Sequence | PBM E-score |
| --- | --- |
| ACATTGAA | 0.203 |
| CAGACTCG | -0.0374 |
| ACACGCTC | 0.00728 |
| GGGGCGCA | -0.142 |
| CTTGCCGA | 0.0568 |
| ATTAGCTC | -0.0671 |
| CCGCACCG | 0.00645 |
| ATAACCTA | -0.0308 |
| ACCTCAGC | -0.0549 |
| AAGGAATG | -0.066 |
| ATCTTCAA | 0.151 |
| AATATGAG | -0.00863 |
| GACGAATA | 0.223 |
| CGTACAGA | 0.132 |
| ACTGTACC | -0.0495 |
| GAGAGACA | 0.246 |
| CGTAATCC | -0.11 |
| AGCCGCAG | -0.298 |
| GTCTGCAA | 0.214 |
| AGGGGATC | -0.335 |
| AGCGACCC | -0.268 |
| ATTGTCAG | 0.218 |
| AGATAAGG | -0.0875 |
| TAGTGACA | 0.277 |
| GGTAGCTA | -0.267 |

| Sequence | PBM E-score |
| --- | --- |
| AGGTATAT | 0.145 |
| ACAAGCCT | 0.1 |
| CTAAGGTA | 0.0518 |
| ATTAGCGA | 0.0703 |
| ATTACATC | 0.112 |
| ACTTGTCC | 0.467 |
| ATATTCTG | 0.109 |
| CCAGCTCG | -0.151 |
| TCATACAA | 0.0685 |
| CTATTGAA | 0.154 |
| CGGAGGCC | -0.217 |
| CACTGGCA | -0.00368 |
| AATACGTC | 0.165 |
| CTTACGCA | 0.0779 |
| ATTCCGAG | 0.246 |
| AAGCATTC | -0.0183 |
| CGGGGACC | -0.1 |
| ATTTATGC | -0.069 |
| GACAAAAC | 0.451 |
| CTAAGGAC | 0.273 |
| TTAAGTAA | 0.0355 |
| AGTGTATG | 0.0822 |
| AGGCGTCA | -0.264 |
| ACGCTTAG | -0.112 |
| CAGGTTCG | -0.0097 |

| Sequence | PBM E-score |
| --- | --- |
| AGACTACA | -0.0509 |
| AATCGTCT | 0.174 |
| TCCTCAAA | 0.0878 |
| CGCTCCCC | -0.355 |
| ACGATTCA | 0.00913 |
| AGGGTAAT | -0.0219 |
| TATGCAAA | 0.0819 |
| GGCCGACC | -0.194 |
| AATGCATC | -0.109 |
| AACGGGCA | -0.00073 |
| AGAATATA | -0.0148 |
| AAATGCTA | 0.138 |
| CTCACTAC | 0.117 |
| AAAAAGCT | 0.00709 |
| AATTAGAG | 0.177 |
| ACTCAGTG | -0.0835 |
| CCTCGTCA | 0.203 |
| CTAGTTGA | 0.101 |
| CCCTGTAA | 0.0805 |
| AGTCTAAG | 0.123 |
| CAGCTTGA | -0.0911 |
| ATTCTCAA | 0.148 |
